The whole screen tested about 48,000 compounds, of which about 120 (0.25%) were called active. Inconclusive results (about 4%) are left out. Calls come from the whole dose curve; as a rule, active = well fitted activation curve with a large enough effect; inconclusive = small, poorly fitted or top-dose-only effect, or another doubt; inactive = no such curve, though single readings can be large or run the other way. The list shows a part of the results.
assay: Primary qHTS for Identification of Small Molecule Activators of Huntingtin-Antisense Promoter Activity; conditions: HEK293 HTT-AS promoter firefly luciferase reporter, 24 h; series mostly up to 57.5 µM; activity change, positive = activation: at the top concentration; note: nearly all actives have a fitted effect of over 55% in size
Summary of the method: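 Firefly luciferase signal from promoter-reporter HEK293 cells was scaled between vehicle (0%) and zero RLU (-100%). Compounds were tested at final concentrations of up to 57.5 uM over 24 h at 37 degrees C. PTC124 at 50 uM final served as control inhibitor.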

Activity change, positive = activation, inactive:
Cc1cccc(-c2noc(CN(C3CCCCC3)S(=O)(=O)c3ccc(F)cc3)n2)c1 -17%, CCC(C(=O)OCc1cc(=O)n2nc(C)sc2n1)c1ccccc1 (centres undefined) -17.7%, COc1ccc2c(c1)-c1nc(NC(=O)c3ccc(OC)c(Br)c3)sc1CC2 -9.84%, COc1ccc(OC)c(NC(=O)c2c(NCc3sccc3C)sc3c2CCCCC3)c1 8.13%, COc1ccc(CNC(=O)CN(c2ccc(C(C)C)cc2)S(=O)(=O)c2c(C)nn(C)c2C)cc1 -23.3%, COc1ccc(NC(=O)CSc2nc3ccccc3nc2N2CCC(C)CC2)cc1 -16.5%, Nc1c2c(nc3ccccc13)CCCC2O (centres undefined) -1.48%, CN(C)C(=O)Oc1ccc[n+](C)c1 1.65%, COc1ccc2c(Sc3ccc(C)cc3)c(C(=O)NCc3ccc(F)cc3)[nH]c2c1 16.4%, COc1ccccc1NC(=O)C1=C(C)Nc2nc(CCCO)nn2C1c1cccc(O)c1 (centres undefined) -11.8%, Nc1ccn([C@@H]2CS[C@H](CO)O2)c(=O)n1 -7.13% [at 116 µM, percent change from vehicle, -100% = no light], Cc1ccc(S(=O)(=O)N2CCCc3cc(NS(=O)(=O)c4cc(F)ccc4F)ccc32)cc1 -52.3%, O=C(CCCn1c(=O)c2ccccc2n(Cc2cccc(Cl)c2)c1=O)NCCc1ccc(Cl)cc1 -33.5%, O=C(Nc1cccc(NC(=O)c2ccccc2F)c1)c1ccccc1 -2.48%, O=C(Cn1cc(S(=O)(=O)N2CCCC2)c(S(=O)(=O)N2CCCC2)c1)Nc1ccccc1 -5.09%, Cn1c(=O)c(=O)n(C)c2cc(S(=O)(=O)N3CCN(c4ccc(F)cc4)CC3)ccc21 -11.8%, COc1cc(C2CC(=O)c3cnc(N4CCN(CCO)CC4)nc3C2)cc(OC)c1OC (centres undefined) -18.4%, CCCC(=O)Nc1cc(C(=O)NCc2ccccc2)ccc1S(=O)(=O)c1ccc(Cl)cc1 -7.01%, CCOC(=O)c1ccc(N2C(=O)c3n[nH]c(-c4ccco4)c3C2c2ccc(OCC)cc2)cc1 (centres undefined) -65.7%, CC(C)c1ccc(NC(=O)CC2NCCNC2=O)cc1 (centres undefined) 7.8%, O=C(CSc1nc2c(oc3ccccc32)c(=O)n1-c1ccccc1)Nc1ccccc1F -37.7%, CCCN(CCC)CCCNC(=O)c1cn(CC)c2ccc(S(=O)(=O)N(C)C3CCCCC3)cc2c1=O -8.19%, CCc1ccc(OCc2cc(=O)n3c4c(sc3n2)CCCC4)cc1 12.2%, COc1cccc(N2CCN(C(=O)C3Cc4ccccc4N3C(C)=O)CC2)c1 (centres undefined) -12.6%, O=C(C1CCC1)N1CCCc2cc(S(=O)(=O)N3CCN(c4ccccc4)CC3)ccc21 -14.1%, CCOC(=O)c1c(C)[nH]c(CCC(=O)Nc2c(C)cccc2CC)c1C -28.6%, CCNc1ncnc2c1nnn2C 1.78%, Cc1cccc(-c2nc3ccccc3n2Cc2ccccc2)c1 -20.2%, CCC(=O)Nc1ccccc1-c1nc2ccccc2n(CC(=O)c2ccc(Cl)cc2)c1=O -0.0204%, CCOC(=O)N1CCc2c(sc(NCc3cccc(F)c3)c2C(=O)Nc2ccc(OC)cc2OC)C1 -91.6%, Cc1ccc(S(=O)(=O)c2nnn3c2nc(NC(C)C)c2sccc23)cc1 -35.3%, CCNC(=O)c1ccc(-n2c(-c3ccccc3)cc3c2CCCCC3)cc1 4.55%, Cc1c(C(=O)Nc2cccc(C(F)(F)F)c2)oc2ccc(S(=O)(=O)N(C)C3CCCCC3)cc12 -13.7%, O=C(CC1C(=O)N(c2ccccc2)C(=O)N1CCc1cccs1)Nc1ccc(Cl)cc1 (centres undefined) -18.1%, COc1ccc(OC)c(NC(=O)[C@H](Cc2ccccc2)N2Cc3ccccc3C2=O)c1 -6.75%, COc1cccc(CNC(=O)CCc2c(C)nn(-c3ccc(N4CCOCC4)nn3)c2C)c1 3.73%, CC(=O)Nc1nonc1-c1nnc(SCc2ccc(C)cc2)n1C -0.877%, CCOC(=O)CNc1ncnc2c1nnn2C 7.5%, CCCNC(=O)c1c2c(nc3ccccc13)C(=O)N(C1CCCCC1)C2 4.43%, CCCc1cc(=O)[nH]c2nnc(SCC(=O)Nc3cccc(C)c3)n12 -17.5%, Cc1cccn2c(=O)c(/C=C(\C#N)c3nc4ccccc4n3C)c(Oc3ccc(Cl)cc3)nc12 -6.04%, COC(=O)c1c(NC(=O)COc2ccc(OC)cc2)sc2c1CCC(C)C2 (centres undefined) -35.6%, CCCc1cc(=O)[nH]c2nnc(SCCC(C)C)n12 -4.52%, COc1cc(NC(=O)CSc2ccc(-c3sc(-c4ccccc4)nc3C)nn2)cc(OC)c1 -1.42%, COc1ccc(CN2CCN(S(=O)(=O)c3ccccc3)CC2)c(OC)c1 -19.5%, CCCn1cc(S(=O)(=O)c2ccc(OC)cc2)c(=O)c2cc(F)c(N3CCCCCC3)cc21 -7.49%, CC(C)Oc1ccc(CNC(=O)C2CCCN(S(=O)(=O)c3ccc4c(ccn4C)c3)C2)cc1 (centres undefined) -34.4%, CCn1cc(S(=O)(=O)c2ccc(C)cc2C)c(=O)c2cc(F)c(N3CCCC3)cc21 -23.8%, Cc1ccc(CSc2nnc3[nH]c(=O)cc(C)n23)cc1 4.36%, NC(=O)NNc1ccccc1 -11.5%, CN1Cc2c(N)cccc2C(c2ccccc2)C1 (centres undefined) -2.29%, CCCN1C(=O)C2(c3ccccc31)c1c(oc3cc(C)c(C)cc3c1=O)C(=O)N2CCCOC (centres undefined) -8.06%, CCC(=O)N1c2ccccc2CC1C(=O)NCCc1ccc(OC)cc1OC (centres undefined) -8.17%, CCc1cccc(-n2c(=O)c3cccnc3n2CC(=O)Nc2ccccc2C(=O)OC)c1 -5.22%, CCOc1ccc(NC(=O)c2ccc3nc(Cc4ccccc4)oc3c2)cc1 15.4%, Cc1ccc2oc(C(=O)Nc3sc4c(c3C(=O)NCc3ccccc3)CCCC4)cc(=O)c2c1 7.08% [at 11.5 µM, percent change from vehicle, -100% = no light], CCC1CN(C(=O)Nc2cc(OC)cc(OC)c2)c2ccccc2S1 (centres undefined) -26.2%, Cc1ccccc1NC(=O)N1CCC(CN2CCCC2)CC1 -7.52%, Cc1ccc(OCC(=O)OCc2cc(=O)n3c(C)csc3n2)cc1 -15.1%, COc1ccc(-n2nc3cc(C)c(NC(=O)c4ccc(C)cc4C)cc3n2)cc1Cl 12%, Nc1ccc(C(=O)OCC(O)CO)cc1 (centres undefined) -2.52%, CCC(=O)N1CCc2cc(S(=O)(=O)NC(Cc3ccccc3)C(=O)NCc3ccc(F)cc3)ccc21 (centres undefined) 0.877%, CC1C(=O)N2CCCc3cc(S(=O)(=O)Nc4ccc(Br)cc4F)cc1c32 (centres undefined) -14.6%, CCOc1cc(-c2nnc(SCC(=O)NCc3ccc(C)cc3)nc2-c2ccc(OC)c(OCC)c2)ccc1OC 9.08%
